Publication PMC6919601, “Identification of Plasmodium dipeptidyl aminopeptidase allosteric inhibitors by high throughput screening” (PLoS ONE, 2019)
The campaign covered roughly 110,000 compounds. About 230 (0.21%) showed an effect of 50% or more. The list shows a part of the results.

Each compound was assayed against DPAP1 (Plasmodium falciparum, UniProt Q8IIJ9) (assay: primary screen, percent inhibition; read by cleavage of a fluorogenic dipeptide substrate; higher = more effect of the substance).
DPAP1, sequence (Q8IIJ9 whole entry, looked up): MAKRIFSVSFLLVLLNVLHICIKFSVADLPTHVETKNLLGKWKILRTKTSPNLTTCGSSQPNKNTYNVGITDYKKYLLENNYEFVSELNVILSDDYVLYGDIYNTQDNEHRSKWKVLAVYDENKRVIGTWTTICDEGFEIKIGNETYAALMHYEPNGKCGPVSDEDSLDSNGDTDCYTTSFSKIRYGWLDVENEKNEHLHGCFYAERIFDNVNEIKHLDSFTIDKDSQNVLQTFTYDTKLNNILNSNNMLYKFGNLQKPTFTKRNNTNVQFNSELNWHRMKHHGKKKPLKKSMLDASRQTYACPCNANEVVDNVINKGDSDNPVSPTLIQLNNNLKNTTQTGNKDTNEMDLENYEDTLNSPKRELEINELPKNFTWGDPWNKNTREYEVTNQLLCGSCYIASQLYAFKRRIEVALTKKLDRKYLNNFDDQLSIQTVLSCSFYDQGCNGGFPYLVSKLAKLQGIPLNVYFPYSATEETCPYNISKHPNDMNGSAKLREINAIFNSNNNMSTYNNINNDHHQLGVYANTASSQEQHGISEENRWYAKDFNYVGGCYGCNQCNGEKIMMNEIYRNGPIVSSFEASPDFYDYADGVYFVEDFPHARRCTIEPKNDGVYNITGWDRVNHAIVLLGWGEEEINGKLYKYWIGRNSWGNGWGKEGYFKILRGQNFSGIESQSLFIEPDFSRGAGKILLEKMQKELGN
Design: species or system P. falciparum D10 trophozoite lysates; single well
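Also: 30 min substrate incubation versus DMSO and 10 µM JCP410 controls.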

SMILES	% Inhibition @ 10 uM [%]
c1cncc(CNC2CCCc3ccccc32)c1 (stereo not drawn)	-0.582
COc1ccc(C2OCC3(CO)CC=C(C)C2C3)cc1 (stereo not drawn)	-0.415
CC(C)OCCCN1C(=O)c2[nH]nc(-c3ccccc3O)c2C1c1ccc(Cl)cc1 (stereo not drawn)	2.02
O=C(c1ccco1)N1CCN(C(=O)c2oc(=O)c3ccccc3c2-c2ccccc2)CC1	0.208
Cc1nc2c(c(C)nn2C(C)(C)C)c(C)c1CCC(=O)Nc1ccc(Br)cn1	-6.09
O=C(C[n+]1ccn2cccc2c1-c1ccccc1)c1ccccc1	3.34
CCOc1cc2c(cc1OCC)C(C(CC)CC)NCC2 (stereo not drawn)	-1.55
C=CCSc1nnc(-c2cccnc2)n1Cc1ccccc1	-3.08
COc1ccc(N(CC(=O)Nc2cccc3ccccc23)S(C)(=O)=O)cc1	-8.67
COc1cccc(/C=C2\N=C(c3cncc(Br)c3)OC2=O)c1	0.26
CO/C(O)=C1/C(C)=Nc2c(c(=O)n(C)c(=O)n2C)C1c1ccc(Br)cc1 (stereo not drawn)	-3.41
CC(C)(C)C1CCC(N2CCN(c3ccccc3)CC2)CC1 (stereo not drawn)	-5.94
CCN1CCN(C(=O)C2CCN(c3nn4cc(-c5ccc(F)cc5)nc4s3)CC2)CC1	-7.33
Cc1nn(-c2ccccc2)c2c1N(CC(=O)NC(C)c1ccccc1)C(=O)CS2 (stereo not drawn)	4.32
COc1ccc(CN2C(=O)c3cccnc3C2=O)cc1S(=O)(=O)Nc1cccnc1	5.87
COCCOC(=O)C1=C(C)N=C2SCCC(=O)N2C1c1ccc(OCc2ccccc2)cc1 (stereo not drawn)	3.27
FC(F)(F)c1ccc(CN2CCN(c3ccccc3)CC2)cc1	-0.0404
COc1cc(-c2nnc(N)s2)cc(OC)c1OC	0.997
O=C(NC(Cc1ccccc1)C(=O)O)/C(=C/c1ccccc1)NC(=O)c1ccc(Br)o1 (stereo not drawn)	5.59
COC(=O)c1sc2nc3n(c(=O)c2c1C)N=C(c1ccc(Cl)s1)CS3	2.72
COc1cccc(S(=O)(=O)NCC(=O)Nc2ccc(Cl)c(C(F)(F)F)c2)c1	-3.41
CC(=O)c1nn(-c2ccc(OC(F)(F)F)cc2)nc1NC1CC1	-5.33
CCOc1ccc(/C=C/c2nc(C#N)c(NCCCN(CC)CC)o2)cc1	4.13
O=C(NC1CCCCC1)c1cc2c(s1)-c1ccccc1S(=O)(=O)C2	-0.447
COc1ccc(C(C)(C#N)CC#N)cc1 (stereo not drawn)	-0.807

SMILES	% Inhibition @ 10 uM [%]
COC(=O)C1=CN(CC2CCCO2)C=C(C(=O)OC)C1c1cccc(Oc2ccccc2)c1 (stereo not drawn)	-1.6
O=S(=O)(Cc1ccccc1)Nc1ccncc1	-1.03
CN1CCN(C(=O)c2ccc(Cn3c(SCc4ccccc4F)nc4ccncc43)cc2)CC1	-1.92
O=C(CC(NC(=O)C(F)(F)F)c1ccccc1)Nc1ccc(Br)cc1 (stereo not drawn)	0.266
Cc1ccc2oc3c(c(=O)c2c1)C(c1ccc(O)cc1)N(Cc1ccc(F)cc1)C3=O (stereo not drawn)	5.3
O=S(=O)(Nc1ccc(Br)cc1)c1ccc(-c2ccccc2)cc1	1.38
O=C(COCc1cc(-c2ccc(F)cc2)on1)Nc1cccnc1Cl	-3.1
Cc1ccccc1C1CC(=O)NC(SCC(=O)Nc2ccccc2)=C1C#N (stereo not drawn)	-3.77
COc1cccc(C(c2c(O)nc(S)nc2O)N2CCC(C)CC2)c1OC (stereo not drawn)	1.3
CCOc1cc(C(=O)NCCN(C)C)cc(OCC)c1OCC	2.25
CCOc1ccc(NC2(c3nnnn3-c3c(C)cccc3C)CCCCC2)cc1	11.6
CCC(=O)Nc1ccc(S(=O)(=O)N2CCCCC2)cc1	0.755
CC1CCN(C(=O)c2ccc(Br)cc2)CC1	-3.42
COc1ccc(-c2cc(C(F)F)n3ncc(C(=O)N4C(C)CCCC4C)c3n2)cc1 (stereo not drawn)	21.1
COc1ccc(N2CCN(Cc3ccc4c(c3)OCO4)CC2)cc1	3.8
Cc1ccc(N(CC(=O)Nc2c(C)cccc2C)S(C)(=O)=O)cc1Cl	-5.13
Cc1ccc(OCC(=O)O/N=C(\N)c2cccnc2)c(C)c1	-7.09
O=[N+]([O-])c1ccccc1S(=O)(=O)NC1CCCCCC1	0.526
CCOc1ccc(NC(=O)c2ccccc2NC(=O)c2ccc(C)cc2)cc1	2.69
COc1ccc(Cl)cc1-n1nnc(-c2nc3ccccc3[nH]2)c1N	1.76
OC1=C2CN(CCc3ccccc3)CN=C2Sc2ccccc21	3.48
Cc1ccc(OCC(=O)N[C@@H](C)c2ccccc2)c(Br)c1	-3.09
O=C(CCc1nc(-c2ccccc2F)no1)N1CCC2(CC1)OCCO2	0.738
CC1(C)CC2(CCCCC2)NCc2ccccc21	1.82
Cc1ccc(C)n1-c1nnc(N2CCCC(C(=O)NCCN(C)C)C2)s1 (stereo not drawn)	1.72

SMILES	% Inhibition @ 10 uM [%]
Cc1nn(-c2ccccc2)c2c1C(c1cccc(Cl)c1)C(C#N)=C(N)O2 (stereo not drawn)	3.65
Cc1cccc(CNC(=O)Cn2nc(C)c3c(C)n(-c4ccccc4)nc3c2=O)c1	11.3
NC(=O)c1ccccc1NC(=O)C(c1ccccc1)c1ccccc1	-5.71
CCCCNC(=O)c1cc(-c2ccncc2)nc2ccccc12	-0.519
CCSc1nc(O)c2c(n1)N=C1CCCC(O)=C1C2c1ccc(O)c(OC)c1 (stereo not drawn)	2.38
COCC(C)NC(=O)Cn1cnc2c1c(=O)n(C)c(=O)n2C (stereo not drawn)	6.68
O=C(NCc1ccccn1)c1ccc(CS(=O)c2ccccc2Cl)o1 (stereo not drawn)	-2.15
CCOC(=O)c1c(NC(=O)c2cc(OC)c(OC)c(OC)c2)sc(C(=O)N2CCCC2)c1C	-1.46
CC(=O)NC1=C(N2CCOCC2)C(=O)c2nonc2C1=O	3.9
Clc1ccc(CN2CCN(c3ccccc3Cl)CC2)c(Cl)c1	-1.92
Cc1cc(NC(=O)c2cnn3c(C(F)(F)F)cc(-c4ccc(Br)cc4)nc23)no1	25.5
CN1C(=O)C2Cc3c([nH]c4ccccc34)C(c3ccc(F)cc3)N2C1=S (stereo not drawn)	0.00784
CCCN1CCC(N(CCO)Cc2ccccc2)CC1	1.57
COc1ccc(N2CCN(Cc3ccccc3Br)CC2)cc1	-2.56
Cc1ccc2nc3c(O)n(CC(=O)N4CCN(C)CC4)ncc-3c2c1	-1.79
COc1ccc(CO/C(O)=C2/C(C)=NC3=C(C(=O)CC(C)(C)C3)C2c2ccncc2)cc1 (stereo not drawn)	1.67
O=C(CNc1nnc(O)nc1O)OCc1ccccc1	-2.62
COc1ccc(/C(C)=N/OCC(=O)Nc2nc3ccccc3s2)cc1OC	-1.86
N#CC1=C(N)OC2=C(C(=O)CC(c3ccccc3)C2)C1c1c[nH]c2ccccc12 (stereo not drawn)	9.41
CN(CCCNC(=O)Cn1ccc2cc(S(=O)(=O)N3CCCCC3)ccc21)Cc1ccccc1	2.94
COc1ccccc1/C=C1\N=C(c2ccc(Cl)c(Cl)c2)OC1=O	-4.46
CC1CC(C)CN(C(=O)CSc2nnc(-c3ccc(Cl)s3)o2)C1 (stereo not drawn)	-2.8
Cc1ccc(CNC(=O)Cn2ncc3c2-c2ccccc2OC3)o1	9.96
O=C1c2ccccc2C(=O)c2c(O)c([N+](=O)[O-])cc(O)c21	11.3
Nc1c(C(=O)NC2CC2)sc2nc(-c3ccc(F)cc3)cc(C(F)(F)F)c12	3.5

SMILES	% Inhibition @ 10 uM [%]
CCCN(CCC)C(=O)CS(=O)(=O)Cc1nc(-c2ccc(C)cc2)oc1C	-5.58
CC(C)c1ccc(C2c3c(oc4ccc(F)cc4c3=O)C(=O)N2CCCN2CCOCC2)cc1 (stereo not drawn)	0.628
CC1=NN2C(=N)/C(=C/c3cn(Cc4cccc(C)c4)c4ccccc34)C(=O)N=C2S1	2.17
O=C(Cc1ccc(-c2ccccc2)cc1)Nc1ccc2ccccc2c1	-4.87
Cc1cc(Cl)ccc1OCC(=O)Nc1sc2c(c1C#N)CCC2	1.57
c1ccc(N2CCN(Cc3ccc4c(c3)OCO4)CC2)cc1	-1.38
O=C(NCCC1=CCCCC1)C1C2C=CC3(CN(Cc4cccs4)C(=O)C13)O2 (stereo not drawn)	15.7
CCOc1ccc(NC(=O)Cc2ccccc2F)cc1	-1.11
COc1ccc(-n2c3c(c(O)cc2=O)C(=O)CC(C)(C)C3)cc1	-4.76
Cc1sc2nc(-c3ccc(C(C)C)cc3)nc(O)c2c1C	-3.09
CCCCCO/C(O)=C1\C(C)=NC2=C(C(=O)CC(C)(C)C2)C1c1cccc(OC)c1OC (stereo not drawn)	-1.03
CCN(CC)c1ccc(NC(=O)C2CC2c2ccccc2)cc1 (stereo not drawn)	1.24
COc1ccc(OC)c(CNCc2c(C(=O)O)n(Cc3ccc(F)cc3)c3cc(OC)ccc23)c1	-1.53
CCCc1cc(C(=O)NCCOc2ccccc2Cl)n(C)n1	-1.96
Cc1nc2ccn(Cc3cccnc3)c(=O)c2cc1C(=O)NCCC1=CCCCC1	-6.53
O=C(CN1N=C(c2ccccc2)CCC1=O)N1CCC2(CC1)OCCO2	0.514
O=C(CCNS(=O)(=O)c1cccs1)Nc1nccs1	1.83
Cc1nn(Cc2ccccc2)c(C)c1NC(=O)c1ccn(C)n1	11
CCC(C)c1ccc(NC(=O)c2cccc(OC)c2)cc1 (stereo not drawn)	-3.39
CC1CCN(CN2C(=O)C(=O)c3ccccc32)CC1	-6.67
CCOC(=O)C1CCN(Cc2ccc(Br)o2)CC1	3.01
COc1ccc(CCNC(=O)C2CCCN(c3nnc(N4CCCC4=O)s3)C2)c(OC)c1 (stereo not drawn)	-4.68
COc1cc2ncc(S(=O)(=O)c3ccc(Cl)cc3)c(N3CCOCC3)c2cc1OC	25.2
COc1ccc(C2C(C(C)=O)=C(O)C(=O)N2CO)cc1 (stereo not drawn)	2.37
